The record followed here is PubChem BioAssay AID434955 (Southern Research Specialized Biocontainment Screening …, 2010).

Each structure is given as a SMILES string. The list shows a part of the results. The main result of the screen is listed elsewhere. These columns were measured beside it and carry no call. Most of these compounds were active or inconclusive in the main read-out, so they are no random draw.

The nature of this experiment: beta-lactam sensitization of Mtb H37Rv, H37Rv (AID 434955).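 Further: growth measured after seven days incubation then overnight dye step; 0% = bacteria only wells and 100% = bacteria with antibiotic.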 The settings on record: M. tuberculosis H37Rv growth with meropenem, percent inhibition; measured here: primary screen without meropenem; at 25 µM.
`O=C(c1ccccc1)c1ccccc1C(=O)N1CCOCC1`: the inhibition is -4.5%. With `CCC(C)[C@H](NC(=O)C1CCN(C(=O)[C@H](Cc2ccccc2)NC(=O)OC(C)(C)C)CC1)C(=O)O` (some centres not stated) the figure was 1.92%; with `CCc1ccc(-c2cc(C)no2)cc1S(=O)(=O)N1CC(=O)Nc2ccccc21`, 1.78%. Next, `COCn1c(-c2ccc(OC)c(OC)c2)nc2ccccc21`: -4.94%; `O=C(CCNS(=O)(=O)c1ccc(Br)s1)NC1CCCC1`: -4.5%. Next, `CCOC(=O)N1CCN(c2nc3ccccn3c(=O)c2C=O)CC1`: -2.99%.

Take `COc1cccc(OCc2nc3c4cnn(-c5ccccc5)c4ncn3n2)c1`: the inhibition worked out at 3.64%. With `O=C(CC(=O)NCc1ccc(Cl)cc1)NCc1ccccc1` the figure was 3.81%; with `Cc1c(C#N)c2ccccc2n1CC(=O)N1CCc2ccccc2C1`, -4.91%; with `COc1ccc(/C=N/Nc2nc(-c3ccc(C)cc3)c(NC(C)=O)s2)cc1`, 45%. With `CCOC(=O)C1=C(C)N=c2s/c(=C\c3ccncc3)c(=O)n2C1c1ccc2c(c1)OCO2` (configuration not stated) the figure was -10%; with `Cc1ccc(S(=O)(=O)Nc2ccccc2C(=O)N2CCCC2)cc1`, -0.53%. With `COc1cc(CNc2ccc(N3CCN(C(C)=O)CC3)cc2)ccc1OCc1ccc(F)cc1` the figure was -6.92%; with `CCn1c(=O)cc(SCC(=O)Nc2cccnc2)c2ccccc21`, 3.31%.

For the molecule `CCc1nc(SCC(=O)Nc2ccc(Br)cn2)n[nH]1`, the inhibition was -4.42%. With `CCOC(=O)c1c(C(C#N)C#N)cc(C)nc1C` the figure was -8.64%; with `CCOC(=O)c1cnc2cc(-c3ccc(C(C)(C)C)cc3)nn2c1N`, 49.6%. With `COc1cccc(/C=N/Nc2nc(N3CCCC3)nc(N3CCCC3)n2)c1O`, the inhibition was found to be 3.67%. In the case of `CCCCN(C(=O)c1ccc(S(=O)(=O)N(C)C)cc1)c1nc2ccccc2s1`, the inhibition is -7.06%. With `Cc1ccccc1CSc1nnc(-c2ccncc2)n1C` the figure was -6.29%; with `Cc1cccc2c1-c1sc(C(=O)N3CCCCC3)cc1CO2`, 7.39%; with `O=C(CNC(=O)c1ccco1)NCC(=O)OCC(=O)c1ccc(Cl)c([N+](=O)[O-])c1`, 3.68%. With `CCCCCn1cc(C(=O)C(=O)N2CCOCC2)c2ccccc21` the figure was 12.7%; with `CC(C)Oc1ccc(Cn2c(=O)oc3ccccc32)cc1`, 1.33%.

Turning to `CCOc1ccc(NC(=O)CSc2nc3ccccc3c(=O)n2CCCC(=O)N2CCCC2)cc1`, the inhibition is -2.68%. Consider `COc1ccc(NC(=O)CSc2nn3c(=O)c(C)nnc3s2)cc1`, for which the inhibition was 1.44%. Regarding `COc1ccc(OC)c(Nc2nc(-c3cccs3)cs2)c1`, the inhibition was found to be 39.5%. With `COc1ccc(C(=O)CSc2ccc(-c3ccc(C)cc3)nn2)cc1` the figure was 3.01%.

In the case of `COc1ccc([C@H]2CC(=O)C=C(c3cccc(C(C)C)c3)C2)cc1OC`, the inhibition is 79.7%. With `CCOC(=O)N1CCN(C(=O)c2cc3n(n2)C(C(F)(F)F)CC(c2ccc4c(c2)OCO4)N3)CC1` (configuration not stated) the figure was 8.18%; with `O=C(CCN1CCOCC1)c1ccc(N2CCCCC2)cc1`, 8.87%; with `COc1ccc(-c2c(NC(=O)C(C)C)n(C)c3ccccc3c2=O)cc1`, -3.55%. With `Cc1ccc(C(=O)N/C(=C\c2ccc(-c3ccccc3[N+](=O)[O-])o2)C(=O)NCCCN(C)C)cc1` the figure was -2.74%; with `CCOc1ccc(NC(=O)c2c(NC(=O)CNCCN3CCOCC3)sc3c2CCC3)cc1`, 95.5%; with `COc1cc(-c2nc3ccc4ccccc4c3c3c2CCC3)ccc1O`, -4%. As for `Cc1ccc(-c2cc(-c3ccccc3)nc(N/N=C/c3cccnc3)n2)cc1`, the inhibition was found to be 99.6%. As to `CC1(C)CC(=O)c2cc(OCC(=O)NCCCN3CCN(c4ccc(F)cc4)CC3)ccc2O1`, the inhibition is -0.89%. With `O=C1/C(=C/c2ccncc2)CCc2ccccc21` the figure was 20.6%; with `CSCCCN1CCC(n2nccc2NC(=O)CCCc2ccccc2)CC1`, -0.66%; with `COC(=O)C1=C(C)NC(=O)/C1=C\c1cc(C)n(-c2cc(C)cc(C)c2)c1C`, 36.3%. `CC(C)C[C@H](NC(=O)OC(C)(C)C)C(=O)NCC1CCC(C(=O)N[C@@H](Cc2ccccc2)C(=O)O)CC1` (some centres not stated): the inhibition was -2.32%. Next, `COCC(=O)N1CCC(Oc2ccc(C(=O)NC3CCOC(C)(C)C3)cc2)CC1` (configuration not stated): -1.42%. With `CC(=O)Nc1ccc(NC(=O)CN(c2ccc(F)cc2)S(=O)(=O)c2ccc3c(c2)OCCO3)cc1` the figure was -3.52%.

Turning to `C=CCNC(=S)NC(=O)c1csc([N+](=O)[O-])c1`, the inhibition is 18.2%. With `Cn1nnnc1Sc1ncnc2scc(-c3cccc(F)c3)c12` the figure was 32.3%. On to `O=C1c2cccc3cccc(c23)C(=O)N1c1nccs1`, for which the inhibition is -2.67%. Next, `COc1ccc(N2CCN(C(=O)CCCC(=O)c3ccccc3)CC2)cc1`: -0.73%; `Cc1cccnc1NC(=O)c1c(O)c2cccc3c2n(c1=O)CCC3`: 6.41%.

As to `COc1ccc(C(=O)CCN2CCN(c3ccccc3OC)CC2)cc1`, the inhibition was found to be 5.63%. With `Cc1cccc(Nc2nnc(SCC(=O)c3ccc(Br)s3)s2)c1C` the figure was 0.19%. Next, `COc1ccc(NC2CCCN(C(=O)COc3ccc(C)cc3)C2)cc1` (configuration not stated): 76.4%. With `CCCCc1nc(C(N)=O)c2[nH]c(=O)n(-c3ccc(OC)c(OC)c3)c2n1` the figure was -2.22%.

Consider `Cc1ccc(CNC(=O)C2CCN(C(=O)c3cccc(Cl)c3)CC2)cc1`, for which the inhibition is 11.9%. Next, `O=C(CC1C(=O)NCCN1C(=S)Nc1ccccc1)Nc1ccc2c(c1)OCCO2` (configuration not stated): 1.3%; `N/C(=N\c1nc2ccccc2o1)NC(=O)c1ccccc1Br`: 37.8%; `Cc1ccc(NC(=O)c2sc(N)nc2C)cc1`: 3.82%. With `O=c1[nH]c(Cc2ccccc2)nc2c1oc1ccccc12` the figure was -6.95%; with `Cc1cc2c(cc1C)N(C(=O)CSC1=NCCS1)C(C)(C)c1ssc(=S)c1-2`, 5.99%; with `Cc1cc2c(cc1S(=O)(=O)Nc1cccc(C)c1C)n(C)c(=O)c(=O)n2C`, 5.43%.

In the case of `COc1ccc(S(=O)(=O)Cc2ccc(C(=O)NC3CC3)o2)cc1`, the inhibition is -14.2%. With `COc1ccc([N+](=O)[O-])cc1C1NN=C(c2ccccc2O)S1` (configuration not stated) the figure was 29.1%; with `CCc1ccccc1NS(=O)(=O)c1cc2c(cc1C)n(C)c(=O)c(=O)n2C`, -6.35%; with `CCn1cc(C(=O)Nc2ccc(OC)c(OC)c2)c2cc(OC)c(OC)cc2c1=O`, -6.94%. With `COc1ccc(NC(=O)c2oc3ccccc3c2NC(=O)C2CC2)cc1OC` the figure was 4.83%.

On to `CCOC(=O)c1c(C)[nH]c(C(=O)COC(=O)CCC2CCCC2)c1C`, for which the inhibition is 10.1%.

With `Cc1[nH]c(C)c(S(=O)(=O)NCc2ccc(F)cc2)c1C(=O)N1CCCC1`, the inhibition was -5.83%. With `Cc1cc(-c2nnc(CCC(=O)NCCc3ccccc3F)o2)no1` the figure was 3.41%. With `Cc1conc1NC(c1cccs1)c1ccc2cccnc2c1O` (configuration not stated) the figure was 23.6%; with `Cc1cccc(Nc2nc(C)nc3c2oc2ccccc23)c1`, 84.6%. With `S=c1[nH]c2ncccc2o1` the figure was -10.1%; with `Cc1noc(C)c1CSc1nnc2ccc3ccccc3n12`, -5.77%.

In the case of `COc1ccc(-c2cc(C(=O)N3CCCCC3)c3ccccc3n2)cc1OC`, the inhibition was 3.3%.

Consider `COc1ccc(OC)c(C(=O)c2ccc(C(=O)N3CCCCC3)cc2)c1`, for which the inhibition is -8.89%. In the case of `COc1ccc(CNC(=O)C2CCCN(S(=O)(=O)c3ccc(F)cc3)C2)cc1` (configuration not stated), the inhibition worked out at 7.47%. Next, `O=C(CCN1C(=O)/C(=C/c2ccccc2Cl)SC1=S)Nc1cccnc1`: 6.91%; `CCCCCOC(=O)c1ccccc1C(=O)O`: -4.73%; `COCc1ccc(C(=O)N2CCCC(Nc3ccc(F)c(F)c3)C2)s1` (configuration not stated): 2.1%. On to `CC1CCCC(NC(=O)CN2C(=O)c3cccnc3Oc3ccc(Cl)cc32)C1C` (configuration not stated), for which the inhibition came to 6.7%. `CCc1ccccc1-n1c(-c2ccncc2)n[nH]c1=S`: the inhibition was -3.23%. Turning to `Cc1nn(C)c(C(=O)N/N=C/c2ccncc2)c1Cl`, the inhibition stood at 1.33%. `C/C(=N\Nc1cc(Cl)nc(C)n1)c1ccc(C)cc1`: the inhibition was 66.8%.

On to `C=CCNC(=O)/C(C#N)=C/c1c(N2CCCCCC2)nc2ccccn2c1=O`, for which the inhibition was -3.1%.

For the molecule `CC(=O)c1cnc(N2CCCCC2)nc1C`, the inhibition is -0.67%. For the molecule `O=C(NCCCCNC(=O)c1cccnc1)c1cccnc1`, the inhibition was -3.39%. Next, `Cc1ccc2nc3c(cc(C(N)=S)c(=N)n3CCCOC(C)C)c(=O)n2c1`: 0.48%; `Cc1ccc(C)n1-c1nnc(N2CCC(C(=O)NCCCN3CCN(C)CC3)CC2)s1`: 0.64%. With `O=c1[nH]nc(C(F)(F)F)c2nnn(Cc3ccccc3Cl)c12` the figure was 8.59%. Take `COc1cc(CNCCO)cc(Br)c1OCc1ccccc1Cl`: the inhibition amounted to 22.8%. Next, `Nc1nc(SCc2ccc(Cl)cc2Cl)nc2nc3c(cc12)CCCC3`: -5.06%; `O=C(OCn1nnc2ccccc2c1=O)c1ccc2c(=O)n3c(nc2c1)CCC3`: 58.4%. Next, `Cc1ccc(C)c(NC(=O)C(Sc2nc3ccccc3c(=O)n2CC(C)C)c2ccccc2)c1` (configuration not stated): 11.2%; `CCc1cccc(NC(=O)C2CCCN2S(=O)(=O)c2ccc3c(c2)CC(C)N3C(C)=O)c1` (configuration not stated): -1.96%. With `CCN(CC(=O)Nc1cc(Cl)ccc1C)C(=O)c1ccc(=O)n(Cc2ccccc2)n1` the figure was -1.13%; with `COc1ccc(N2C(=O)c3ccccc3NC2c2ccc(OC)c(Cn3nnc4ccccc43)c2)cc1` (configuration not stated), -3.53%; with `CC1SCC(NC(=O)c2ccc(Cl)cc2)CS1` (configuration not stated), 11.5%. `Cc1cccc(NC(=O)[C@H](C)NC(=O)[C@@H]2Cc3ccccc3CN2C(=O)OC(C)(C)C)c1`: the inhibition was -13.4%.

In the case of `Cc1ccc(OC(=O)c2cccc(S(=O)(=O)N3CCCC3)c2)c(-n2nc3ccccc3n2)c1`, the inhibition is -2.84%. Regarding `O=C(Nc1ccccc1)c1ccccc1Oc1ccc(C(F)(F)F)cc1[N+](=O)[O-]`, the inhibition stood at 11.2%. Next, `CN(C)c1ccc(/C=C/c2cc[n+]([O-])cc2)cc1`: 33.5%; `COC(=O)c1c(C)n(-c2ccccc2)c2ccc(O)cc12`: 49%; `COC(=O)c1cccc(NC(=O)CC2C(=O)NCCN2C(=O)Nc2ccccc2)c1` (configuration not stated): 5.64%. Next, `CN(C)S(=O)(=O)N1CCC(n2nccc2NC(=O)CCc2ccccc2)CC1`: -4.65%; `COc1ccc(/C=C/CN2CCC(Oc3ccc(C(=O)N4CCCCC4)cc3)CC2)cc1`: 76.1%.

`O=C1N=C(N2CCCC2)S/C1=C\c1cccc(Br)c1`: the inhibition was determined as 32.9%. With `COc1cc([N+](=O)[O-])c(C(=O)N2CCOCC2)c([N+](=O)[O-])c1`, the inhibition is -6.55%. With `Cc1ccc2[nH]c(O)c(N=Nc3nc4ccccc4s3)c2c1`, the inhibition amounted to 11.1%.

For the molecule `CCN(CC)c1ccc(C=N/C(C#N)=C(\N)C#N)cc1`, the inhibition was 9.73%.

Broadly, the inhibition is the relative decrease from the control value, in per cent.
